44 molecules from publication PMC4336329 (PLoS ONE, 2015) can be followed below.

Hit rate of the full screen: of about 310,000 compounds, about 2,200 (0.71%) showed an effect of 50% or more. The effect is printed as a negative number. The list shows a part of the results.

Chain of human ether-à-go-go-related gene (hERG) potassium channel (Q12809 whole entry, looked up): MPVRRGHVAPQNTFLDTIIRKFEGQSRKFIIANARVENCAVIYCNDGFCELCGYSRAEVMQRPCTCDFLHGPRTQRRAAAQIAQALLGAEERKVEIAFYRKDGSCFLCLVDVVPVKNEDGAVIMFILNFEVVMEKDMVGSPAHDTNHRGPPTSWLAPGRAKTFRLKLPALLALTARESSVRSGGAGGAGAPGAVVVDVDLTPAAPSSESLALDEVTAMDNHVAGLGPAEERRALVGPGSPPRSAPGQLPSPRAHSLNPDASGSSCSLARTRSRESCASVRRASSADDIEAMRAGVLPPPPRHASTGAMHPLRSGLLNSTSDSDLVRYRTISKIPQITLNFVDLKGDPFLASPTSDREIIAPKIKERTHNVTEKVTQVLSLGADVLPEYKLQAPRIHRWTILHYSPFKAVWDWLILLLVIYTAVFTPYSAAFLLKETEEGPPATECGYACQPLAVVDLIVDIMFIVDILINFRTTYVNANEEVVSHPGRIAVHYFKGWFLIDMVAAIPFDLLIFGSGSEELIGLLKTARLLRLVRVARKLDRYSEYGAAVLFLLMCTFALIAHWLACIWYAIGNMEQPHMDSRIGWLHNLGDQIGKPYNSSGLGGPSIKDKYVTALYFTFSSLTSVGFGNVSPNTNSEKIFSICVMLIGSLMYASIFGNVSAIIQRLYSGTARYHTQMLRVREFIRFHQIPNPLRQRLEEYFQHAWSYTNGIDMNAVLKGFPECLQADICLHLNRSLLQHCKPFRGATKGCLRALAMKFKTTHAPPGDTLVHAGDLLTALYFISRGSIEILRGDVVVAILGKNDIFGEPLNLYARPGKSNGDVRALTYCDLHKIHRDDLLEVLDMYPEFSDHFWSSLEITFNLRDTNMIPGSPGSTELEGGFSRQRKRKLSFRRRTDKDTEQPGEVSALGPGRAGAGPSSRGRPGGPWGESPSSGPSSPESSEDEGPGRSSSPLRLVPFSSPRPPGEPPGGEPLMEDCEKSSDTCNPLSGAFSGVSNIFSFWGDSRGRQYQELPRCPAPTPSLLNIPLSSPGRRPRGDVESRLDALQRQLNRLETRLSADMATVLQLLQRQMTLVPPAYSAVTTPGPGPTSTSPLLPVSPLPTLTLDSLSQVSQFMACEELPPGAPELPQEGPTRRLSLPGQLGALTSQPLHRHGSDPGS

The assay concerns the target human ether-à-go-go-related gene (hERG) potassium channel (human, UniProt Q12809). Description: primary screen, population patch clamp on CHO cells stably expressing hERG.
With `O=C(COC(=O)c1ccc(S(=O)(=O)NCc2ccco2)cc1)c1ccccc1`, the “hERG current change (%, negative = inhibition) at 1uM” value is on record as -1.51%.
On to `Oc1ccccc1N1CCN(c2nnnn2-c2ccccc2)CC1`, for which the “hERG current change (%, negative = inhibition) at 1uM” value is reported as 10.2%.
`CN(C)Cc1c(O)ccc2c3c(c(=O)oc12)CCCCC3`: the “hERG current change (%, negative = inhibition) at 1uM” value was determined as 10.4%.
Then `O=C(Nc1cc2nn(-c3ccccc3)nc2cc1Cl)c1ccco1`, with 16.3%.
Then `Cc1ccc(NNC(=O)c2snnc2C)cc1Cl`, with 4.86%.
For `Cc1ccc(C)c(S(=O)(=O)N2CCN(C(=O)c3cccn3C)CC2)c1`, the “hERG current change (%, negative = inhibition) at 1uM” value turned out to be 10.1%.
Then `O=C(O)CCN1C(=O)C2C3C=CC(C2C1=O)C1C(=O)N(CCC(=O)O)C(=O)C31` (centres unmarked), with 5.87%; and `Cc1ccc2nc(-c3ccccc3)c(CC(=O)O)c(C(=O)O)c2c1`, with 14.3%; and `CC(=O)C1=C(O)C(=O)N(c2ccc(Br)cc2)C1c1ccc([N+](=O)[O-])cc1` (centres unmarked), with 4.17%.
Consider `COc1ccc(C(=O)n2nc(-c3ccc(OC)cc3)nc2N)cc1`, for which the “hERG current change (%, negative = inhibition) at 1uM” value is reported as 5.08%.
As to `CN(C)c1ccc(/C(=N\O)c2ccccc2)cc1`, the “hERG current change (%, negative = inhibition) at 1uM” value amounted to 3.86%.
Then `CNc1nn(-c2cccc(Cl)c2)nc1N`, with 9.22%.
Take `CC(=O)c1c(C)[nH]c(C(=O)NCc2ccc(C)cc2)c1C`: the “hERG current change (%, negative = inhibition) at 1uM” value is on record as 15.2%.
Then `CCn1c(SCc2nc3ccccc3c(=O)[nH]2)nc2ccccc2c1=O`, with 15.9%; and `COc1ccccc1NS(=O)(=O)c1cccc(NC(=O)CCNC(=O)c2ccccc2OC)c1`, with -6.17%; and `CCOc1ccc(NC(=O)NCCN2CCN(c3ccccc3F)CC2)cc1`, with -22.7%.
On to `COc1cccc(N=Cc2c(O)n(Cc3ccco3)c(=O)[nH]c2=O)c1`, for which the “hERG current change (%, negative = inhibition) at 1uM” value is reported as 18.4%.
Under `C=CCC1(Cl)C(=O)C(Cl)=C(N2CCOCC2)C1(OC)OC` (centres unmarked) stands 13.6%.
Turning to `CC1=CC(C)(C)Nc2ccc(OC(=O)CN3C(=O)CCC3=O)cc21`, the “hERG current change (%, negative = inhibition) at 1uM” value was found to be 7.7%.
As to `CCOc1ccc(Br)cc1CN(CC)CC.Cl`, the “hERG current change (%, negative = inhibition) at 1uM” value is 8.54%.
Under `COC(=O)c1ccc(CN2CCC(Oc3ccc(C(=O)N4CCCCC4)cc3)CC2)cc1` stands -11.3%; under `Cn1c(SCC(=O)Nc2ncc(C(F)(F)F)cc2Cl)nnc1-c1ccc(Cl)cc1`, -9.54%; under `Cc1ccc(NC(=O)Cn2c([N+](=O)[O-])cnc2C)cc1Cl`, 13%.
Under `CCS(=O)(=O)N1CCCC(C(=O)Oc2ccc(Br)cc2)C1` (centres unmarked) stands 5.62%; under `CC(C)(C)c1ccc(NC(=O)c2ccc3c(c2)S(=O)(=O)c2ccccc2C3=O)cc1`, 18.7%.
Consider `C/C(CC(=O)Nc1ccc(Cl)cn1)=N\NC(=O)Cc1cccs1`, for which the “hERG current change (%, negative = inhibition) at 1uM” value was found to be 6.89%.
`COc1ccc(C2=NO[C@@H]3C(=O)N(C4CCCCC4)C(=O)[C@H]23)cc1OC`: the “hERG current change (%, negative = inhibition) at 1uM” value was -6.55%.
Then `CCOC(=O)CNc1ncc(C(F)(F)F)cc1Cl`, with 14.7%.
As to `COc1ccccc1NC(=S)NCCSc1ccc(Cl)cc1`, the “hERG current change (%, negative = inhibition) at 1uM” value is recorded as 7.58%.
Take `COc1cc(C)cc(C(=O)O)c1C1=C(O)c2cccc(O)c2C(=O)C1=O`: the “hERG current change (%, negative = inhibition) at 1uM” value worked out at 4.88%.
`COC(=O)c1cc(CNC(=O)C(C)NS(=O)(=O)c2ccc(C)c(C)c2)ccc1OC` (centres unmarked): the “hERG current change (%, negative = inhibition) at 1uM” value was 13.8%.
In the case of `CCCN(CCC)CC(O)CN1C(=O)NC(C)(C)C1=O` (centres unmarked), the “hERG current change (%, negative = inhibition) at 1uM” value was 10.2%.
Then `COc1ccc(C)cc1N(CC(=O)N1CCCCCC1)S(=O)(=O)c1ccccc1`, with 3.68%; and `CC1=CC(C)C2C(=O)N(O)C(=O)C2C1` (centres unmarked), with 12%; and `Cc1ccc(C(=O)N2CCN(C(=O)C3CCCO3)CC2)cc1` (centres unmarked), with 2.84%.
Then `COc1ccc(S(=O)(=O)N2CCCC(C(=O)NCc3ccncc3)C2)cc1Cl` (centres unmarked), with -0.994%.
For the molecule `O=C(CN1CCCc2ccccc21)NCCc1ccc(F)cc1`, the “hERG current change (%, negative = inhibition) at 1uM” value stood at 5.82%.
Under `CC(=O)NCCC(=O)N1CCc2c([nH]c3ccccc23)C1c1cccc(Cl)c1` (centres unmarked) stands 9.24%.
Under `CSCCC(NC(=O)c1ccccc1)C(=O)NCCc1ccccc1` (centres unmarked) stands 4.72%.
`CCOCCCNC(=O)c1ccc2c(c1)ncn2-c1ccc(CC)cc1`: the “hERG current change (%, negative = inhibition) at 1uM” value is listed as -5.28%.
In the case of `O=C(COC(=O)C1(c2ccccc2F)CCCC1)N1CCOCC1`, the “hERG current change (%, negative = inhibition) at 1uM” value worked out at 15.1%.
Under `CN(CCOc1ccc(Br)cc1)C(=O)CNC(=O)c1ccc2ccccc2c1` stands 10.2%; under `CCOc1ccc(/C=N/Nc2ccc(Cl)nn2)c(O)c1`, 15.3%; under `COCCNC(=O)c1nn(-c2cc(OC)cc(OC)c2)c(=O)c2ccccc12`, 14.4%.
